# Source: patent publication US5352804A, “Isolation and structure of Halistatin 2” (Arizona Board of Regents, a body corporate, acting on …, priority 1993, dated 1994)
# Where two headings read alike, the source gives them in different places.
# System: human tumor cell lines
# Test: cells
# Text: Only two hundred years ago, many diseases ravaged humankind. Many of these diseases now have been controlled or eradicated. In the development of the means to treat or control these diseases, work with the appropriate common experimental animals was of critical importance. With the various types of cancers, and with the HIV virus, such work is presently ongoing. The research for the treatment of various types of cancer is coordinated in the United States by the National Cancer Institute (NCI). NCI, as a government entity, has been charged with assisting anti-cancer research. To establish whether a substance has anti cancer activity, NCI has established a variety of protocols, one of which involves testing the candidate substance against a cell line panel containing 60 human tumor cell lines. This protocol has been verified and is generally accepted throughout the scientific community. This protocol and the established statistical means of evaluating the results obtained therefrom have been fully described in the literature. See Principles & Practice of Oncology PPO Updates, Volume 3, Number 10, Oct. 1989, by Michael R. Boyd, M.D., Ph.D., for an indepth description of the test protocol. The statistical analysis is explained in "Display and Analysis of Patterns of Differential Activity of Drugs Against Human Tumor Cell Lines: Development of Means Graph and COMPARE Algorithm" Journal of the National Cancer Institute Reports Vol. 81, No. 14, Pg. 1088, Jul. 14, 1989, by K. D. Paull et al. Both of these references are incorporated herein by this reference thereto.
# Biological Testing; Data Display and Analysis; Screening Data Summary. Freshly isolated halistatin 2 was tested in the NCI's human tumor, disease-oriented in vitro primary screen, and data calculations performed. Table 3 is a composite prepared from mean graphs constructed from the averaged GI50 values from quadruplicate screenings of Halistatin 2.
compound,measurement,setting,value
C=C1CC2CCC34CC5OC6C(O3)C3OC(CCC3OC6(O)C5O4)CC(=O)OC3C(CC4OC(CCC1O2)CC(C)C4=C)OC1CC2OC4(CC2OC1C3C)CC1OC2(CC(C)C3OC5CC(C(O)CO)OC5CC3O2)CC(C)C1O4 (centres unmarked) [halistatin 2],"Log10 TGI, Delta",,1.05
same,"Log10 TGI, Range",,1.26
same,GI50,"Homo sapiens, read-out: Log10 GI50, MG-MID (converted)",676 pM
same,IC (TGI),"Homo sapiens, read-out: Log10 TGI, MG-MID",6170 pM
same,GI50,"Homo sapiens, read-out: overall panel mean GI50",680 pM
